Results from PubChem BioAssay AID463173 (ICCB-Longwood Screening Facility, Harvard Medical School, 2010).
In all, about 52,000 compounds went through this assay and about 4,300 (8.3%) were called active. No stated cut-off is given here; in the data, active means survival mostly below about 52% (no sharp cut-off); inactive means mostly above about 56%. Some of the results follow.

Tested on: DeltatarO mutant
Test: growth inhibition of S. aureus wild type versus tarO mutant, primary screen, teichoic acid synthesis inhibitors, RN4220, OD600 (AID 463173)
Settings: OD600, 18 h, active compounds read low, screened at 18.75 µg/mL (by protocol)

Row | Compound | survival
1 | Cc1ccc(-c2c(CN3CCN(c4cc(Cl)ccc4C)CC3)csc2C)cc1 | inactive: 51%
2 | O=C(CSc1nc2ccccc2n1CC(=O)Nc1ccc(F)cc1F)Nc1ccc(F)cc1 | inactive: 89%
3 | CCOc1ccc2c(c1)c(=O)c(S(=O)(=O)c1ccc(C)cc1)cn2CC(=O)Nc1ccc(C)cc1 | inactive: 66%
4 | COCCCN1CCc2nc(SCC(=O)Nc3ccc(C)c(Cl)c3)[nH]c(=O)c2C1 | inactive: 83%
5 | CCn1c(=O)c2cc(C(=O)NCCc3cccc(C)c3)sc2c2ccccc21 | inactive: 70%
6 | CCOC(=O)c1cc(-c2ccc(/C=C(\C#N)C(N)=C(C#N)C#N)o2)ccc1Cl | inactive: 87%
7 | CCc1ccccc1Nc1nn2c(=O)c3ccc(C(=O)NCCc4ccccc4)cc3nc2s1 | inactive: 69%
8 | Cc1cccc(C(=O)NC2(C(F)(F)F)N=C(c3ccccc3)N(Cc3ccccc3)C2=O)c1 (centres undefined) | inactive: 73%
9 | Cc1c(Cl)cccc1NC(=O)CN1C(=O)c2ccccc2Sc2ncccc21 | inactive: 83%
10 | O=C(NC1CCCCC1)C1OC(c2ccccc2)OC1C(=O)NC1CCCCC1 (centres undefined) | inactive: 86%
11 | CN(C)c1ccc(C(CNC(=O)COc2ccccc2)N2CCOCC2)cc1 (centres undefined) | inactive: 75%
12 | O=C(CN1C(=O)CCSc2ccc(S(=O)(=O)N3CCCC3)cc21)Nc1cccc(Cl)c1 | inactive: 83%
13 | CCOc1ccc(NC(=O)Nc2c(C)n(C)n(-c3ccccc3)c2=O)cc1 | inactive: 101%
14 | CCN(CC)S(=O)(=O)c1ccc2c(c1)N(CC(=O)NCc1ccccc1)C(=O)CS2 | inactive: 73%
15 | Cn1ncc2c(NCc3cccc(Cl)c3)ncnc21 | inactive: 102%
16 | COc1cc(Cl)c(C)cc1NC(=O)CSc1cc(=O)n(C)c2cc(Cl)ccc12 | inactive: 63%
17 | Cc1ccc2c(=O)cc(C(=O)Nc3sc4c(c3C(=O)NCc3ccco3)CCCC4)oc2c1C | inactive: 80%
18 | CCc1ccc(CNC(=O)c2nn(-c3ccc(C)c(C)c3)nc2CO)cc1 | inactive: 112%
19 | CCC(C)NC(=O)Cn1ncc2c(C)n(Cc3ccc(F)cc3)c(C)c2c1=O (centres undefined) | inactive: 66%
20 | COC(=O)c1ccc(Cn2c(=O)cc(C)c3c(C)nn(C)c32)cc1 | inactive: 66%
21 | CC(=O)CSc1nc(-c2ccccc2)[nH]c1S(=O)(=O)c1ccc(C)cc1 | inactive: 74%
22 | CCOc1ccc(Sc2cc(C(=O)NCc3ccc(F)cc3)c3ccccc3n2)cc1 | inactive: 124%
23 | CCn1cc(C(=O)N2CCN(c3ccccc3)CC2)c(=O)c2cc(S(=O)(=O)N(C)C3CCCCC3)ccc21 | inactive: 79%

Row | Compound | survival
24 | CC(C)(C)C(=O)N1c2ccccc2CCc2ccccc21 | inactive: 84%
25 | COc1ccc(NS(=O)(=O)c2ccc3c(c2)CCN3C(=O)C2CC2)cc1OC | inactive: 86%
26 | Cc1cc(C)c2c(=O)cc(C(=O)NCCc3ccc(S(N)(=O)=O)cc3)oc2c1 | inactive: 61%
27 | CC(C)OC(=O)CSc1n[nH]c(-c2cccnc2)n1 | inactive: 108%
28 | O=C(Cc1cccs1)N1CCC(Cc2ccccc2)CC1 | inactive: 97%
29 | Cc1ccccc1CNC(=O)C(=O)NCC(c1ccco1)S(=O)(=O)c1ccc(F)cc1 (centres undefined) | inactive: 81%
30 | O=C(O)/C(=C/C(=O)c1ccccc1)Nc1ccccc1 | inactive: 101%
31 | Cc1c(Cl)cccc1NC(=O)N1CCN(Cc2cc(=O)n3nc(-c4ccccc4F)sc3n2)CC1 | inactive: 101%
32 | Cc1nn(C)c2c1c(-c1ccccc1)cc(=O)n2Cc1ccccc1F | inactive: 109%
33 | CCCS(=O)(=O)N1CCC(N2CCN(Cc3ccc(C)cc3)C(=O)C2=O)CC1 | inactive: 74%
34 | Cc1ccc(-c2noc(CCC(=O)Nc3ccc(F)cc3Cl)n2)cc1 | inactive: 80%
35 | COc1ccc(NC(=O)c2cccc(N3CCCS3(=O)=O)c2)cc1 | inactive: 88%
36 | Cc1cc(F)ccc1NC(=O)C1CCCN(c2nnc(-n3c(C)ccc3C)s2)C1 (centres undefined) | inactive: 79%
37 | Cc1cc(C)cc(N2C(=O)CS(=O)(=O)C23C(=O)N(Cc2ccc(F)cc2)c2ccc(C)cc23)c1 (centres undefined) | inactive: 67%
38 | Cn1ncc(C(=O)N2CCN(c3ccccc3)CC2)c1C1CCN(C(=O)OC(C)(C)C)CC1 | inactive: 78%
39 | CCOc1ccc(-c2cc3nc(C4CCN(C(=O)OC(C)(C)C)CC4)c(C(=O)Nc4ccc(C(=O)OC)cc4)cn3n2)cc1 | inactive: 109%
40 | Cc1ccc(CCNC(=O)NCc2noc3ccc(C)cc23)cc1 | inactive: 76%
41 | Cc1cccc(NC(=O)C(c2ccccc2)N2Cc3ccccc3C2=O)c1C (centres undefined) | inactive: 95%
42 | COC(=O)c1ccc(COC(=O)c2ccccn2)cc1 | inactive: 97%
43 | CNC(=O)CN(C1CCCCC1)S(=O)(=O)c1ccc(C)cc1 | inactive: 75%
44 | COC(=O)c1sccc1S(=O)(=O)N(CC(=O)Nc1ccc(C)cc1)c1ccccc1 | inactive: 97%
45 | COc1cccc2cc(-c3nnc(Nc4ccccc4C)s3)c(=O)oc12 | inactive: 71%
46 | CCN1C(=O)/C(=C/C=C2\Oc3ccccc3N2CC)SC1=S | inactive: 77%

Row | Compound | survival
47 | N#CC1=C(N)SC(N)=C(C#N)C1c1cc2c(cc1Cl)OCO2 | inactive: 117%
48 | C=CCN1CCN(C(c2ccc(C)cc2)c2nnnn2C2CCCC2)CC1 (centres undefined) | inactive: 103%
49 | Cc1cccc(CNC(=O)c2ccc(-c3nc(CS(=O)(=O)c4ccccc4)c(C)o3)cc2)c1 | inactive: 94%
50 | CN(C)c1ccc(-c2nc(-c3ccccn3)no2)cc1[N+](=O)[O-] | active: 42%
51 | Cc1cc(C)n2nc(CNC(=O)c3cccc(Cl)c3)nc2n1 | inactive: 80%
52 | CSc1ccc(CCNC(=O)C(C)n2nc(C)c3c(C)n(-c4ccccc4)nc3c2=O)cc1 (centres undefined) | active: 46%
53 | COc1cc(S(=O)(=O)N2CC(C)OC(C)C2)c(OC)cc1Cl (centres undefined) | inactive: 109%
54 | COc1ccc(NC(=O)CSc2nnc(CNc3ccc(C)cc3C)o2)c(OC)c1 | inactive: 80%
55 | COc1ccccc1OC(C)C(=O)Nc1ccc(-c2nc3ccccc3s2)cc1 (centres undefined) | inactive: 64%
56 | CC1(C)CC(CC(=O)O)(Cc2ccccc2)CCO1 (centres undefined) | inactive: 95%
57 | CCc1ccc(NC(=O)CCn2nc(-c3ccccc3OC)c3c(C)cc(C)nc32)cc1 | inactive: 53%
58 | Cc1ccc(-c2nnc(Nc3cccc(O)c3)c3ccccc23)cc1S(=O)(=O)N1CCOCC1 | inactive: 78%
59 | COc1ccc(-c2noc(CC(=O)Nc3ccc(F)cc3F)n2)cc1 | inactive: 63%
60 | CN(Cc1ccccc1)C(=O)Nc1ccc2c(c1)N(C)C(=O)c1ccccc1S2 | inactive: 94%
61 | COc1ccc(NC(=O)C2=C(C)Nc3nc(SCc4ccccc4C)nn3C2c2cc(OC)c(O)c(OC)c2)cc1 (centres undefined) | inactive: 89%
62 | Cc1ccc(-n2ncc(C(=O)NCc3cccs3)c2C2CCN(C(=O)OC(C)(C)C)CC2)c(C)c1 | inactive: 101%
63 | CCC(Sc1nc2cc(OC)c(OC)cc2c2nc(-c3ccccc3)nn12)C(=O)Nc1cccc(C)c1 (centres undefined) | inactive: 80%
64 | O=C(NCc1ccccc1Cl)c1ccc(CSCc2ccccc2Cl)o1 | inactive: 93%
65 | COc1ccc(OC)c(NC(=O)CSc2nnc3ccc4ccccc4n23)c1 | inactive: 57%
66 | Cc1ccc(CSc2nnc(CCNC(=O)OC(C)(C)C)o2)cc1 | inactive: 120%
67 | COc1cc2cc(CNc3ccc(C)cc3)c(=O)n(CC(=O)Nc3ccc(F)cc3F)c2cc1OC | inactive: 83%
68 | CCOC(=O)c1c(C)[nH]c(CCC(=O)Nc2ccc(C)c(F)c2)c1C | inactive: 101%
69 | CC(C)NC(=O)CN1C(=O)COc2ccc(S(=O)(=O)N3CCCCCC3)cc21 | inactive: 77%

Row | Compound | survival
70 | COc1cc(C(=O)NCC(c2cccs2)S(=O)(=O)c2ccc(F)cc2)cc(OC)c1OC (centres undefined) | inactive: 104%
71 | Cc1cccc(OCC(=O)Nc2ccc(Cl)c(-c3nc4ncccc4o3)c2)c1C | inactive: 62%
72 | Cc1ccccc1Oc1ccc(-c2nc(N)nc(N)n2)cc1 | inactive: 81%
73 | O=C(CSC1=NCCS1)NCc1ccco1 | inactive: 95%
74 | Cc1cccc(NC(=O)c2nnn(CC(=O)Nc3ccc(C(C)C)cc3)c2N)c1C | inactive: 93%
75 | COc1ccc(-c2cc(C(=O)OC(C)C(=O)c3ccccc3)c3cccc(Cl)c3n2)cc1 (centres undefined) | inactive: 76%
76 | c1ccc(Nc2c(-c3c[nH]c4ccccc34)nc3ccccn23)cc1 | active: 54%
77 | CC(C)Nc1ccc(-c2nc(-c3ccco3)no2)cc1[N+](=O)[O-] | inactive: 107%
78 | Cc1ccc(C2c3[nH]c4ccccc4c3CCN2C(=O)c2cccc(C)c2)cc1 (centres undefined) | inactive: 124%
79 | Cc1ccc2nc(N3CCC(C(=O)N4CCN(c5cccc(Cl)c5)CC4)CC3)[nH]c2c1 | inactive: 68%
80 | CCOCCCNC(=O)C(c1ccc(C)cc1)N(Cc1ccc2c(c1)OCO2)C(=O)c1ccc(NC(C)=O)cc1 (centres undefined) | inactive: 51%
81 | CCC(C)NC(=O)c1ccccc1NC(=O)CN1C(=O)c2cccc3cccc1c23 (centres undefined) | inactive: 50%
82 | Cc1ccc(NC(=O)CCc2nnc3n(C)c(=O)c4sccc4n23)cc1C | inactive: 70%
83 | CSC1=NC2(CCN(C(=O)NC3CCCCC3)CC2)N=C1c1ccc(C)c(C)c1 | inactive: 81%
84 | Cc1ccc(CNC(=O)CC(C)S(=O)(=O)c2cc3c(cc2C)NC(=O)CO3)cc1 (centres undefined) | inactive: 89%
85 | CC(C)Oc1ccc(C(=O)N(Cc2ccco2)c2ccccn2)cc1 | inactive: 60%
86 | Cc1ccc(C)c(NC(=O)CN2C(=O)C(C)(C)c3ccccc32)c1 | inactive: 74%
87 | O=C(Nc1sc2c(c1C(=O)NCc1ccco1)CCCC2)c1cc(=O)c2ccccc2o1 | active: 43%
88 | COc1ccc(Br)cc1CNC(=O)c1cc2n(n1)CCCN(Cc1ccc(C)cc1)C2=O | inactive: 102%
89 | CCC(=O)N1CCc2cc(Br)cc(S(=O)(=O)CCC(=O)NCc3ccc(Cl)cc3)c21 | inactive: 78%
